Measured values as given in paper PMC4336329 (PLoS ONE, 2015).
The whole screen tested about 310,000 compounds, of which about 2,200 (0.71%) showed an effect of 50% or more. The effect is printed as a negative number. The list shows a part of the results.

target: human ether-à-go-go-related gene (hERG) potassium channel (human, UniProt Q12809); test: primary screen, population patch clamp on CHO cells stably expressing hERG
Sequence (Q12809 whole entry, looked up): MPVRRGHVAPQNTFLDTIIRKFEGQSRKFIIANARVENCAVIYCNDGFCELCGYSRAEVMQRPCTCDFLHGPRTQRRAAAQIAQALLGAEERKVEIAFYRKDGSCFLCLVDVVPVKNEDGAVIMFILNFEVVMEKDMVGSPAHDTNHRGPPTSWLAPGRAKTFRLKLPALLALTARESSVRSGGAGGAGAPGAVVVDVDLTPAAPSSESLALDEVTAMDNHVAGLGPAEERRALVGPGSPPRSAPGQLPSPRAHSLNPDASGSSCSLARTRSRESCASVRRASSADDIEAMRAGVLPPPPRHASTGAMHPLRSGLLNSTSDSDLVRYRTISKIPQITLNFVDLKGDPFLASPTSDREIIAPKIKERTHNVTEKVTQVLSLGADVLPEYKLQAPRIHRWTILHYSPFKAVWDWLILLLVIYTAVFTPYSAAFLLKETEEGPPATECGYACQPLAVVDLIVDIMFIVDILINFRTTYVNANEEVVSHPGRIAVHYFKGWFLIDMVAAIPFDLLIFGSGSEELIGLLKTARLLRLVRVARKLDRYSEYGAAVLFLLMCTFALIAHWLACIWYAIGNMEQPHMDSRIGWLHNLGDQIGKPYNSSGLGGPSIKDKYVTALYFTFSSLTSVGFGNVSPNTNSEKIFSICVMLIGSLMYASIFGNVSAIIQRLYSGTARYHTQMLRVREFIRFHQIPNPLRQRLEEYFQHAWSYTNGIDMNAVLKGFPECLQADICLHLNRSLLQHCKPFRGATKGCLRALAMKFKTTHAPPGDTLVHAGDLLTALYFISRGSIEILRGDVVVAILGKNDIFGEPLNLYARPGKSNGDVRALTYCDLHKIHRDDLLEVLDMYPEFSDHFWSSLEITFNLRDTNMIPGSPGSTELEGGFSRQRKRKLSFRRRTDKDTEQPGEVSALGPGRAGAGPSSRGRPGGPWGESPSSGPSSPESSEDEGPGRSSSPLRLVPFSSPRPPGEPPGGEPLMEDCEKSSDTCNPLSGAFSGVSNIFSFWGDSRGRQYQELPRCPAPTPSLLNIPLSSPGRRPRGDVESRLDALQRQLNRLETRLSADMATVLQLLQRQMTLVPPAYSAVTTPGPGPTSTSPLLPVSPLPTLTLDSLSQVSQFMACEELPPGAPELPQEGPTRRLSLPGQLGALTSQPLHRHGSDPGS

Row | SMILES | hERG current change (%, negative = inhibition) at 1uM
1 | CN1CCc2c(sc(NC(=O)C3CCCN3S(=O)(=O)c3ccc(Cl)s3)c2C(N)=O)C1.Cl (stereo not drawn) | -17%
2 | Cl.Nc1ccc2c(c1)nc(Cc1ccccc1)n2CCO | 10.9%
3 | Cc1ccccc1NC(=O)COC(=O)/C=C/c1cn(-c2ccccc2)nc1-c1cccnc1 | 7.75%
4 | CS(=O)(=O)c1ccccc1-c1nnc(NC(=O)c2cccc(N3C(=O)CCC3=O)c2)o1 | 15.7%
5 | O=C(NCc1cccnc1)NC1CCCN1S(=O)(=O)c1ccc(Cl)cc1 (stereo not drawn) | 2.28%
6 | O=C(CN1C(=O)C2C3C=CC(C3)C2C1=O)NCCC1=CCCCC1 (stereo not drawn) | 2.11%
7 | O=C(/C=C/c1ccc(Br)cc1)NCc1cccs1 | 16.2%
8 | CCOc1cccc2sc(NC(=O)CC)nc12 | 13.1%
9 | O=C(CN1C(=O)NC2(CCc3ccccc3C2)C1=O)NCc1ccco1 (stereo not drawn) | 4.74%
10 | CCOC(=O)c1cc2c(=O)n3ccccc3nc2n(CCOC)c1=NC(=O)C(C)(C)C | 10.1%
11 | O=C1OCCN1CC(=O)N1CCc2c([nH]c3ccccc23)C1c1ccccn1 (stereo not drawn) | 5.1%
12 | CCCCCCCNC(=O)C1(CC2CC(c3cccc(Br)c3)=NO2)CCN(C(=O)OC(C)(C)C)CC1 (stereo not drawn) | 4.2%
13 | Cc1ccccc1-n1c(C)cc(/C=N/Nc2ccc([N+](=O)[O-])cn2)c1C | 16.6%
14 | O=C(NCCc1ccc(Cl)cc1)C1CCN(S(=O)(=O)c2ccc(-n3cnnn3)cc2)CC1 | -36.1%
15 | CCOC(=O)c1c(-c2ccccc2)oc2ccc(O)cc12 | 10.6%
16 | CCn1c(CNC(=O)c2ccccc2F)nnc1SCC(=O)Nc1nncs1 | 6.04%
17 | O=C(c1ccccc1)c1cc[n+]([O-])cc1 | 4.5%
18 | CCc1ccc(NS(=O)(=O)c2c(C(=O)N3CCCCCC3)c(C)n(C)c2C)cc1 | 9.92%
19 | O=C(Nc1cccc(O)c1)C1CCCN1C(=O)OCc1ccccc1 (stereo not drawn) | 3.5%
20 | Clc1ccc2[nH]cc(-c3nnnn3-c3ccccc3)c2c1 | 11.5%
21 | COCc1cc(=O)[nH]c(Nc2nc3ccccc3o2)n1 | 5.93%
22 | COc1cc(OC)cc(-c2c(-c3cccs3)c3cc(-c4ccc(SC)cc4)ccc3n2C)c1 | 6.34%
23 | CCOc1ccc(CCNC(=O)c2nnn(CC(=O)Nc3c(C)cc(C)cc3C)c2N)cc1OCC | 15.9%
24 | CC(=O)N(C)c1nc(-c2ccc(Cl)cc2)cs1 | 15.6%
